In PubChem BioAssay AID686979 (National Center for Advancing Translational Sciences (NCATS), 2013):
Out of some 420,000 compounds screened, about 50,000 (12%) were called active. The shares of active, inactive and inconclusive entries below differ from those in the screen. Calls follow the shape of the dose curve; as a rule, active = well fitted inhibition curve with a large enough effect; inconclusive = small, poorly fitted or top-dose-only effect; inactive = flat fitted curve, though single readings scatter. No potency is given beside an inconclusive call; the fits are too rough.

Test: qHTS for Inhibitors of human tyrosyl-DNA phosphodiesterase 1 (TDP1): qHTS in cells in presence of CPT; also: nearly all actives have a fitted effect of over 55% in size
Conditions: chicken DT40 Tdp1-/-;hTDP1 cells + 20 nM CPT, ATP luminescence, 48 h; activity change, negative = growth inhibition: at 46.2 µM (top of the series) unless noted
In short: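 Chicken DT40 Tdp1-/- cells stably complemented with human TDP1 were seeded at 400 cells/well in medium containing 20 nM camptothecin, exposed to pin-transferred compounds, and grown at 37 °C for at least 48 hr. Viability was read as ATP luminescence.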
% is scaled to controls: 0 for no effect and ±100 for the full control effect; potency is read from the fitted curve at half-maximal effect; tags tell the direction and shape of the fitted curve.

Compound	Potency	activity change, negative = growth inhibition
CCOC(=O)CSC1=C(C#N)C(c2ccc(Cl)cc2)CC(=O)N1 (configuration not stated)	inconclusive [inhibitor, single point]	–
Cc1ccccc1-c1nc(NCCN(C)C)nc2ccsc12	–	inactive: -20.7%
Cc1ccc(S(=O)(=O)N2CCCCC2)cc1NC(=O)CNC(C)c1ccc(Cl)c(Cl)c1 (configuration not stated)	active: 14.6 µM	–
COC(=O)[C@@]1(Cc2ccc(F)cc2)[C@H]2c3cc(C(=O)N4CCCC4)n(CCF)c3C[C@H]2CN1C(=O)c1ccccc1	active: 23.1 µM	–
COc1cc(C(F)(F)F)ccc1C(=O)NCCc1ccco1	–	inactive: 0.399%
O=[N+]([O-])c1cc(F)c(N2CCCCC2)cc1N1CCOCC1	inconclusive [inhibitor, single point]	–
N=C(N)c1ccc(N=Nc2c(O)ccc3c2[nH]c2ccccc23)cc1	active: 20.6 µM	–
COC(=O)c1ccc(NC(=O)c2cccc(C)c2)cc1	–	inactive: -2.48%
COc1ccc(CNCCCn2cnc3c(OCc4ccccc4)ncnc32)cc1	inconclusive [inhibitor, single point]	–
c1ccc(COc2ccc(-c3cc4nc(NCCN5CCOCC5)ccn4n3)cc2)cc1	inconclusive [inhibitor, single point]	–
NC(=O)c1cccc(-c2ccnc3c2CC(C(=O)NCc2ccc(F)c(F)c2)O3)c1 (configuration not stated)	active: 4.61 µM	–
CN(C(=O)COC(=O)c1n[nH]c2ccccc12)C1CCS(=O)(=O)C1 (configuration not stated)	–	inactive: -6.66%
CSc1ncccc1C(=O)OCC(=O)c1ccc2c(c1)NC(=O)CO2	–	inactive: -6.43%
CCC(CO)Nc1nc2ccc(Cl)cc2c2ccccc12 (configuration not stated)	inconclusive [inhibitor, single point]	–
COc1ccc(/C=C/C(=O)Nc2ccccc2Cl)cc1S(=O)(=O)N1CCOCC1	inconclusive [inhibitor, single point]	–
Cc1ccc(-n2nnnc2SCC(=O)c2cc(C)n(-c3cc(C)on3)c2C)cc1	active: 11.6 µM	–
CC1CCN(C(=O)CSc2nc3ncccc3[nH]2)CC1	–	inactive: 0.302%
O=C(C1CCCN(c2ncnc3c2nc2n3CCCCC2)C1)N1CCN(c2ccccc2F)CC1 (configuration not stated)	inconclusive [inhibitor, single point]	–
COc1cccc(NC(=O)CN(C)C(=O)c2cccc(S(=O)(=O)N3CC4(C)CC3CC(C)(C)C4)c2)c1 (configuration not stated)	inconclusive [inhibitor, single point]	–
COc1ccccc1C(=O)NCC(=O)NC1CCCc2ccccc21 (configuration not stated)	inconclusive [inhibitor, single point]	–
Cc1cc(C)c([N+](=O)[O-])cc1NCC(=O)N1CCN(c2ccccc2)CC1	inconclusive [inhibitor, single point]	–
CCC[C@@H](CN1CCC[C@H]1CN1C(N)=NC[C@@H]1Cc1ccccc1)N1C[C@@H](Cc2ccccc2)N(CCc2ccc(Cl)c(Cl)c2)C1=N	inconclusive [inhibitor, single point]	–
CC(C)n1cc(C(=O)N2CCCC(N3CCN(c4cccc(Cl)c4)CC3)C2)cn1 (configuration not stated)	–	inactive: -1.86%
O=C(c1cnn2c(C(F)(F)F)cc(-c3ccc(Br)cc3)nc12)N1CCOCC1	inconclusive [inhibitor, partial curve, poor fit]	–

Compound	Potency	activity change, negative = growth inhibition
O=C(c1ccco1)N1CCC2(CCN(Cc3ccncc3)CC2)CC1	–	inactive: -4.12%
O=C(NC(NNc1ccc([N+](=O)[O-])cc1)(C(F)(F)F)C(F)(F)F)c1ccc(F)cc1	active: 23.1 µM	–
COc1ccccc1N1C(=O)c2cccc3c(N(C)CCO)ccc(c23)C1=O	active: 8.2 µM	–
O=[N+]([O-])c1ccc(CSC2=NCCN2)cc1	active: 20.6 µM	–
C#CCNC(=O)C1=C[C@H](C(C)(C)C)C[C@H](OCc2ccc(CO)cc2)O1	inconclusive [inhibitor, single point]	–
COc1ccc(NC(=O)c2ccc(Cl)nc2)cc1S(=O)(=O)N1CCCCC1	inconclusive [inhibitor, single point]	–
Cc1ccc(NC(=O)c2cc3cc(C)ccc3n2C)cc1	–	inconclusive: -30.2% [inhibitor]
CCOC(=O)C1(CCOc2ccccc2)CCN(CC(O)CO)CC1 (configuration not stated)	–	inactive: -6.22%
CCCCCC(=O)N1C[C@@H](O)[C@H](n2cc(-c3ccc(F)cc3)nn2)C[C@@H]1c1ccccc1	active: 23.1 µM	–
CN(C)C(CNC(=O)c1oc2ccccc2c1CSc1ncn[nH]1)c1ccco1 (configuration not stated)	–	inconclusive: -33% [inhibitor]
O=C(NCCN1CCOCC1)c1cc(-c2cccc(Cl)c2)on1	–	inactive: -8.01%
COc1ccc(F)cc1C(=O)C1CCCN(Cc2cn(C)c3ccccc23)C1 (configuration not stated)	active: 14.6 µM	–
Cc1nn(Cc2ccccc2Cl)c(C)c1NC(=O)c1cc(C(C)C)on1	inconclusive [inhibitor, single point]	–
CCOc1ccc(N(CC(=O)N2CCN(c3ccccc3OC)CC2)S(=O)(=O)c2ccc(C)cc2)cc1	inconclusive [inhibitor, single point]	–
O=C(NCCc1ccccc1)c1sc2ncccc2c1-n1cccc1	active: 25.9 µM	–
OC(COc1ccccc1)CN1CCN(C(c2ccccc2)c2ccccc2)CC1 (configuration not stated)	inconclusive [inhibitor, single point]	–
CCOc1ccc(-n2c(C)nc3cc(C(=O)NCC4CCCO4)ccc32)cc1 (configuration not stated)	–	inactive: -1.44%
Cc1cc(C)cc(CC(=O)N2CCC2(C)C(=O)NS(=O)(=O)c2cccc(F)c2)c1 (configuration not stated)	–	inactive: -6.66%
Cc1cnc(N2C(=O)c3ccc([N+](=O)[O-])cc3C2=O)s1	–	inactive: 4.81%
Cc1cc(Cl)n2nc(C)c(-c3ccc(Cl)cc3)c2n1	inconclusive [inhibitor, single point]	–
COc1cc2c(oc(=O)c3cc(C)cc(OC)c32)c2c(C3OC(C)C(O)C(C)(O)C3O)ccc(O)c12 (configuration not stated)	active: 1.46 µM	–
Nc1c(C(=O)N2CCOCC2)sc2nc(N3CCOCC3)c3c(c12)CCCC3	inconclusive [inhibitor, single point]	–
COC(=O)C1CCCCN1Cc1ccc2c(c1)CN(C(=O)c1ccc(C)s1)CCO2 (configuration not stated)	–	inactive: 2.55% [at 9.04 µM]
